Measurements as given in paper PMC4336329 (PLoS ONE, 2015).
Among all 310,000 compounds or so, about 14,000 (4.5%) showed an effect of 50% or more. The effect is printed as a negative number. The list shows a part of the results.

These compounds were tested against human ether-à-go-go-related gene (hERG) potassium channel (human, UniProt Q12809) (assay: primary screen, population patch clamp on CHO cells stably expressing hERG).
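Also: peak tail current of the secondary pulse compared with the same well before compound.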

human ether-à-go-go-related gene (hERG) potassium channel, sequence (Q12809 whole entry, looked up): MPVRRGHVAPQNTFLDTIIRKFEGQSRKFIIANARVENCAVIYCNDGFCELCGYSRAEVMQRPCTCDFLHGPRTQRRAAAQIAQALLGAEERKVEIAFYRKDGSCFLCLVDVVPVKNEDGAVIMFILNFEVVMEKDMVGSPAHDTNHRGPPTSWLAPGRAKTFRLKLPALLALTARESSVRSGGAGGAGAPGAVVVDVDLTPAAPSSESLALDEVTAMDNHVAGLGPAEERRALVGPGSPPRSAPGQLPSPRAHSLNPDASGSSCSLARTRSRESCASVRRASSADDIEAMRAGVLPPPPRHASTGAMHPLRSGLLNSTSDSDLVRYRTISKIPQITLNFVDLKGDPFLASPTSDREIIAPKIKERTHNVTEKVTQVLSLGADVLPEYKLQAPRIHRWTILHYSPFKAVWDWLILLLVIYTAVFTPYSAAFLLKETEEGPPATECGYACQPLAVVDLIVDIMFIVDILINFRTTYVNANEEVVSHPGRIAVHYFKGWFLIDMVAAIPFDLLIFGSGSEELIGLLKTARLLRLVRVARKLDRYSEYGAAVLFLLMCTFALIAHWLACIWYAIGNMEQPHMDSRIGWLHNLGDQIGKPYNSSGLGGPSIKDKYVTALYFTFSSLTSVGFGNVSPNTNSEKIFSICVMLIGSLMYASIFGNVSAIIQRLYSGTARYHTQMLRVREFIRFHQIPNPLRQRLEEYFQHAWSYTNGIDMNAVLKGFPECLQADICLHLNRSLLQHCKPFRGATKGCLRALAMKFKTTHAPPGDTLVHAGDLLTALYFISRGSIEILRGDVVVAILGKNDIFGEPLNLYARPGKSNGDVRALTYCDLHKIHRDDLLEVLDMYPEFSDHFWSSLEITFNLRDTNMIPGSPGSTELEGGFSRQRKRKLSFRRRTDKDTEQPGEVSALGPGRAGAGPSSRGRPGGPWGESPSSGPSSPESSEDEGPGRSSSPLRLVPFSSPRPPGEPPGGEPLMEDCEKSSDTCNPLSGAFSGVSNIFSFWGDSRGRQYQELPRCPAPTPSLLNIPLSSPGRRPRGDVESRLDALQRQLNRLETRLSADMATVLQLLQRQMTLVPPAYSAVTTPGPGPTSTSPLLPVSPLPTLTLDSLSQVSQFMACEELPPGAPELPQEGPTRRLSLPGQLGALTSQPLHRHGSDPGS

| Compound | hERG current change (%, negative = inhibition) at 10uM [%] |
| --- | --- |
| O=[N+]([O-])c1ccc(-c2nc(NCC3CCCO3)c3ccccc3n2)cc1 (stereo not shown) | 12.3 |
| Cc1ccc(CN2CCN(C(=O)C3CCCO3)CC2)cc1 (stereo not shown) | 3.55 |
| CCC(=O)Nc1nnc(S(=O)(=O)N(CC)c2ccc(Cl)cc2)s1 | 9.75 |
| COc1ccc(N2CCN(C(=O)c3cc4c(s3)CCCCC4)CC2)cc1 | -40.2 |
| O=C(Nc1ccc2c(c1)OCCO2)C1CCCN1S(=O)(=O)c1cccc2cccnc12 (stereo not shown) | 9.45 |
| O=C(NCCCN1CCOCC1)C(=O)NCc1ccccc1Cl | 12.8 |
| Clc1c(CSc2nc3ccccc3o2)nc2sccn12 | 5.65 |
| COc1ccc(CCNC(=O)c2ccc(OCC(=O)N3CCOCC3)c(OC)c2)cc1OC | 7.6 |
| O=C(N/C(=C/c1ccc(Br)cc1)C(=O)N1CCOCC1)c1cccs1 | -5.65 |
| Cc1ccc(C(=O)N/C(=C/c2ccco2)C(=O)Nc2cccc(C(=O)O)c2)cc1 | 16.3 |
| COCc1n[nH]c(=S)n1-c1ccccc1 | 15.2 |
| Cc1ccc(C)c(C2C(=O)c3ccccc3C2=O)c1 | -4.36 |
| CCc1nn(C(CC)C(=O)NCc2cccs2)c(=O)c2cc3occc3n12 (stereo not shown) | 6.57 |
| CCN(CC(=O)Nc1cc(Cl)ccc1C)C(=O)c1ccc2c(c1)NC(=O)C(C)S2 (stereo not shown) | -33.7 |
| O=C(O)CCCN1C(=O)C(=O)/C(=C(/O)c2ccccc2)C1/C=C/c1ccccc1 (stereo not shown) | 4.17 |
| Cc1ccc(NC2=NCC(=O)N2C2CCCC2)cc1C.Cl | 13.4 |
| CC1CCN(C(=O)C2CC(c3ccc(F)cc3)=NO2)CC1 (stereo not shown) | -11.5 |
| Cc1cccc(NC(=O)Cn2cnc(S(=O)(=O)N3CCCC3)c2)c1C | 12.9 |
| COc1cccc(NC(=O)c2oc3ccccc3c2NC(C)=O)c1 | -0.721 |
| CC1=C(C(=O)OCC2CCCO2)C(c2ccncc2)C2=C(CC(C)(C)CC2=O)N1 (stereo not shown) | -10.3 |
| O=C(CSc1nnc(-c2cccnc2)n1C1CCCCC1)NC1CCCCC1 | -17.4 |
| O=C(C1CCC1)N1CCN(c2ccc(Cl)cc2)CC1 | -5.33 |

| Compound | hERG current change (%, negative = inhibition) at 10uM [%] |
| --- | --- |
| COc1cc(N)ccc1Cc1ccc(N)cc1OC | 22 |
| CC(=O)Nc1c(C(=O)c2ccccc2)oc2ccccc12 | -10.3 |
| NC(=O)C[n+]1cccc(CNC(=O)c2ccc(OC(F)F)cc2)c1.[Cl-] | -1.5 |
| COc1ccc(C(=O)c2ccc(Br)cc2)c2ccccc12 | -6.64 |
| COc1ccc(C)cc1S(=O)(=O)N1CCN(C(=O)c2ncoc2-c2ccccc2F)CC1 | 16.2 |
| Cc1c(C)n(C)c2ccc(C(=O)NCCN3CCOCC3)cc12 | 17.5 |
| O=c1/c(=C/c2ccco2)sc2n1CN(c1cccc(Br)c1)CN=2 | 14.2 |
| CCc1ccc(N(C(=O)Cn2nnc(-c3ccccc3)n2)C(C(=O)NC2CCCCC2)c2ccccn2)cc1 (stereo not shown) | -46 |
| CN(Cc1ccc(F)cc1)Cc1nc(CCc2ccccc2)no1 | 0.381 |
| COc1ccc(Oc2nc(SC)nc3ccsc23)cc1 | 12.3 |
| CCOC(=O)CCC(=O)Nc1cc(S(=O)(=O)N2CCOCC2)ccc1N1CCCCC1 | -15.5 |
| Cc1ccc(NC(=O)C2CC(=O)OC23CCOC(C)(C)C3)cc1 (stereo not shown) | 1.08 |
| C#CCN1CCN(c2cccc(C(F)(F)F)c2)CC1 | 8.78 |
| O=C(Cn1c(=O)n(CCc2c[nH]c3ccccc23)c(=O)c2cccnc21)Nc1ccccc1F | 2.96 |
| CCCn1c(=O)c2sccc2n2c(CCCC(=O)NCc3ccco3)nnc12 | -19.2 |
| COC(=O)CNC(=O)c1cccs1 | 9.38 |
| O=C(CCC1COc2ccccc2O1)Nc1cccnc1 (stereo not shown) | -6.92 |
| CC(=O)Nc1cccc(C(=O)Nc2cccc(S(=O)(=O)NCc3ccco3)c2)c1 | -4.68 |
| CC(=O)Nc1ccc(NC(=O)C(C)OC(=O)CCCN2C(=O)c3cccc4cccc(c34)C2=O)cc1 (stereo not shown) | 3.52 |
| CCn1c(C)cc(O)c(C(=O)Nc2cccc(Cl)c2)c1=O | 7.26 |
| CCOC(=O)N1CCC(N2Cc3cccc(C(=O)NCC4CCN(CC(C)C)C4)c3C2=O)CC1 (stereo not shown) | -36.1 |
| COc1ccccc1NC(=O)CSc1nc2ccccc2c(=O)n1C | 12.1 |

| Compound | hERG current change (%, negative = inhibition) at 10uM [%] |
| --- | --- |
| CC(c1ccccc1)n1c(SCC(=O)N2CC(=O)Nc3ccccc32)nc2ccccc2c1=O (stereo not shown) | 7.92 |
| O=C1Nc2ccccc2O/C1=C\c1ccccc1 | 17.2 |
| Cc1nc2ccc3nc(NC(=O)c4ccc5c(c4)OCCO5)sc3c2s1 | 2.9 |
| COc1ccccc1N(Cc1cc2ccc(C)cc2[nH]c1=O)C(C)=O | -11.6 |
| Cc1cn(CC2COC(C)(C)O2)c(=O)[nH]c1=O (stereo not shown) | 22.6 |
| Cc1ccccc1S(=O)(=O)N1[C@@H](c2ccccc2)C(C(=O)O)=CC[C@H]1c1ccc(Cl)cc1 | 14.4 |
| CC(C)(C)c1ccc(C(=O)NCC(=O)OCC(=O)N2CCN(S(=O)(=O)c3ccc(Cl)cc3)CC2)cc1 | -4.82 |
| Cc1ccc(C)c(OCC(=O)N2CCc3ccccc3C2)c1 | 0.256 |
| Cc1cccc(NS(=O)(=O)c2ccccc2)n1 | -8.65 |
| COc1cccc(N2C(=O)C(Cc3c[nH]c4ccccc34)NC2=S)c1 (stereo not shown) | 17.3 |
| CN(C)C(CNC(=O)c1ccc(C2SCCS2)cc1)c1ccccc1 (stereo not shown) | 7.3 |
| COC(=O)c1cc(OC)c(OC)cc1NC(=O)C1CCC(=O)N1S(=O)(=O)c1ccc(C)cc1 (stereo not shown) | -12.3 |
| Cc1ccc(C(=O)N(C)CC(=O)Nc2cccc(F)c2)cc1S(=O)(=O)N1CCCCC1 | -10.5 |
| COc1ccc(C(=O)Nn2c(SCc3cccc([N+](=O)[O-])c3)nc3ccccc3c2=O)cc1 | 5.72 |
| CC(=O)Nc1ccc(NC(=O)C(=O)NCC(c2ccco2)N2CCc3ccccc32)cc1 (stereo not shown) | -8.84 |
| CC(=O)OCC(=O)C1(O)CCC2C3CCC4=CC(=O)C=CC4(C)C3C(O)CC21C (stereo not shown) | 9.27 |
| O=c1[nH]c(O)c(C=Nc2ccccc2[N+](=O)[O-])c(=O)[nH]1 | 36.7 |
| CC(=O)NCCC1CCN(C(=O)C2CCC(=O)N(C3CCCC3)C2)CC1 (stereo not shown) | 11.2 |
| COc1ccc(-c2nnn(CC(=O)N(CCN3CCOCC3)C(C(=O)NC3CCCC3)c3ccco3)n2)cc1 (stereo not shown) | -15.7 |
| CCOc1ccc(OC(=O)c2ccc3c(=O)n4c(nc3c2)CCC4)cc1 | -0.0701 |
| CCC(C)N(CCNC(=O)c1ccc(NC2=NC3CS(=O)(=O)CC3S2)cc1)Cc1ccco1 (stereo not shown) | -19.9 |
| Cc1cc(Cl)c(OCCOCCN2CCN(C)CC2)c(Br)c1.O=C(O)C(=O)O | -9.48 |

| Compound | hERG current change (%, negative = inhibition) at 10uM [%] |
| --- | --- |
| S=c1[nH]c2ncccc2o1 | -31.9 |
| COCCN1CCn2c(nc3cc(NS(C)(=O)=O)ccc32)C1 | -9.18 |
| Cc1c(/C=N/n2cnnc2)c2ccccc2n1CCOc1ccc(Cl)cc1 | -7.38 |
| CCC(=O)c1ccc(OCC(O)CNC(C)c2ccccc2)cc1 (stereo not shown) | -14.7 |
| CCOc1cc(N2CCOCC2)c(OCC)cc1NC(=O)CN1C(=O)NC2(CCCCC2)C1=O | -69.7 |
| CC(=O)O[C@@H]1[C@@H](OC(C)=O)[C@H](n2ccc3cc([N+](=O)[O-])ccc32)OC[C@@H]1OC(C)=O | -2.52 |
| Nc1c(-c2ccccc2)c(CSc2nc3ccccc3[nH]2)nn1-c1cccc(Cl)c1 | -3.15 |
| COc1ccc(OCCNC(=O)/C=C/c2ccc([N+](=O)[O-])cc2)cc1 | -64.7 |
| CC(NC(=O)c1cc(S(=O)(=O)N2CCOCC2)ccc1N1CCCC1)c1ccc(Cl)c(Cl)c1 (stereo not shown) | -23.9 |
| O=C(Nc1ccnn1C1CCN(Cc2cccc(OCCO)c2)CC1)C1CCOC1 (stereo not shown) | -2.98 |
| CCc1noc(C)c1C(=O)N1CCN(S(=O)(=O)c2ccc(Br)cc2Cl)CC1 | -40.7 |
| COc1ccc(CCNC(=O)Cn2cccc2C(=O)c2ccccc2)cc1OC | 18.4 |
| COC(=O)[C@]1(C)CCC[C@@]2(C)C3CC[C@@]4(C)C[C@]3(CCC21)CC4=NO (stereo partly shown) | -11.2 |
| Cc1ccc(C(=O)Nc2nnc(-c3ccncc3)o2)cc1 | -7.01 |
| Cc1ccc(S(=O)(=O)N2CCCCC2)cc1NC(=O)Nc1ccc(Cl)cc1Cl | 19 |
| COc1cc(Cl)ccc1NC(=S)N(CCCN1CCOCC1)Cc1cn(C)c2ccccc12 | -5.83 |
| O=C(NCCN1CCOCC1)c1ccc(-c2ccccc2)cc1 | -8.77 |
| COCCN(CCOC)C(=O)c1ccc(CSc2nc3ccccc3s2)cc1 | -21.8 |
| C[C@@H](C(O)c1ccccc1)N(C)C(=O)CCc1ccccc1 (stereo partly shown) | -6.9 |
